Assay results: patent US20170335016A1 (Kyowa Kirin, published 2017)

B1: multivalent antibody 281VL4-CH1-281 (bispecific antibody)
heavy: EVQLVQSGSELKKPGSSVKVSCKASGGTSRSFAISWVRQAPGQGLEWMGGIIPIFGPANYAQKFQGRVTITADESTSTAYMELSSLRSEDTAVYYCARHAIAMGWGVITTNYFDSWGQGTMVTVSSASTKGPSVFPLAPCSRSTSESTAALGCLVKDYFPEPVTVSWNSGALTSGVHTFPAVLQSSGLYSLSSVVTVPSSSLGTKTYTCNVDHKPSNTKVDKRVGSQVQLQESGPGLVKPSETLSLTCTVSGGSISGYYWSWIRQPPGKGLEWIGYIYYSGSTNYNPSLKSRVTISVDTSKNQFSLKLNSVTAADTAVYYCARAPLHGDYKWFHPWGQGTLVTVSSASTKGPSVFPLAPCSRSTSESTAALGCLVKDYFPEPVTVSWNSGALTSGVHTFPAVLQSSGLYSLSSVVTVPSSSLGTKTYTCNVDHKPSNTKVDKRV[human IgG4 Fc with changes omitted here]
light: [about 120 residues omitted here]
notes: Anti-CD28 site N-terminal, anti-CD40 site C-terminal; N5KG4PE (IgG4) vector; Entries probably still carry signal peptides
B2: multivalent antibody 281VL4-CH1(118-131)-281 (bispecific antibody)
heavy: EVQLVQSGSELKKPGSSVKVSCKASGGTSRSFAISWVRQAPGQGLEWMGGIIPIFGPANYAQKFQGRVTITADESTSTAYMELSSLRSEDTAVYYCARHAIAMGWGVITTNYFDSWGQGTMVTVSSASTKGPSVFPLAPCQVQLQESGPGLVKPSETLSLTCTVSGGSISGYYWSWIRQPPGKGLEWIGYIYYSGSTNYNPSLKSRVTISVDTSKNQFSLKLNSVTAADTAVYYCARAPLHGDYKWFHPWGQGTLVTVSSASTKGPSVFPLAPCSRSTSESTAALGCLVKDYFPEPVTVSWNSGALTSGVHTFPAVLQSSGLYSLSSVVTVPSSSLGTKTYTCNVDHKPSNTKVDKRV[human IgG4 Fc with changes omitted here]
light: [about 120 residues omitted here]
notes: as for B1
B3: multivalent antibody 281VL4-CH1(118-130)-281 (bispecific antibody)
heavy: EVQLVQSGSELKKPGSSVKVSCKASGGTSRSFAISWVRQAPGQGLEWMGGIIPIFGPANYAQKFQGRVTITADESTSTAYMELSSLRSEDTAVYYCARHAIAMGWGVITTNYFDSWGQGTMVTVSSASTKGPSVFPLAPQVQLQESGPGLVKPSETLSLTCTVSGGSISGYYWSWIRQPPGKGLEWIGYIYYSGSTNYNPSLKSRVTISVDTSKNQFSLKLNSVTAADTAVYYCARAPLHGDYKWFHPWGQGTLVTVSSASTKGPSVFPLAPCSRSTSESTAALGCLVKDYFPEPVTVSWNSGALTSGVHTFPAVLQSSGLYSLSSVVTVPSSSLGTKTYTCNVDHKPSNTKVDKRV[human IgG4 Fc with changes omitted here]
light: [about 120 residues omitted here]
notes: as for B1

The binders below were run against T1, human-CD28-Fc fusion protein (human, UniProt P10747 19-152) (assay: ELISA as in Example 19, human-CD28-Fc coated).
T1 construct: also called Fc fusion protein of the human-CD28 extracellular domain with IgG; hECD28-Fc
T1 sequence (P10747 19-152): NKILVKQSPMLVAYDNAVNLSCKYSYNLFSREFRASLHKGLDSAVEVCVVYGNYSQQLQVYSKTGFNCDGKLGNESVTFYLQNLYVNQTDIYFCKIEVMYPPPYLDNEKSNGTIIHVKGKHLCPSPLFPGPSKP
Protocol: The human-CD4O-Fc fusion protein and the human-CD28-Fc fusion protein were adjusted to give a concentration of 1 μg/mL using coating buffer (50 mM carbonate buffer, pH 9). To a well, 50 μL/well of the obtained human-CD4O-Fc fusion prostein or the obtained human-CD28-Fc fusion protein was added into the Maxisorp Plate (manufactured by Nalge Nunc International) respectively, and incubated at 4° C. overnight to be immobilized. Then, 200 μL/well of blocking reagent (SuperBlock (registered trademark) Blocking Buffer, manufactured by Pierce Protein Research) was added to the well, followed by incubation at room temperature for 30 minutes for blocking. Then, 50 μL/well of the culture supernatant comprising each antibody obtained in above Examples was added to the well followed by incubation at room temperature for 1 hour. After washing three times with Washing buffer (0.1% Tween20-TBS), Affinity Isolated Antibody HRP Conjugated Goat F(ab)₂ anti-Human κ (manufactured by EY Laboratories Inc) was diluted with assay diluent (0.1% Tween20-TBS containing Block Ace manufactured by Dainippon Sumitomo Pharma Co. Ltd. by 10%). Then, 50 μL of the obtained solution was added to each well followed by incubation at a room temperature for 1 hour. After washing three times with washing buffer, 50 μL of TMB (manufactured by Dako) coloring substrate solution was added to each well, followed by incubation in a dark room at room temperature. After developping color, 0.5 M vitriol (50 μL/well) was added to stop the reaction. The absorbance at the wavelength of 450 nm was measured with a microplate reader (SPECTRAMAX190, manufactured by Molecular Devices Inc).
The binding of the produced antibody comprising two (CD40 and CD28) recognition sites for each antigen was measured in the same manner as Example 19.
B1: binds. B2: binds. B3: binds.
